# According to PubChem BioAssay AID743279 (National Center for Advancing Translational Sciences (NCATS), 2014):
# In all, about 360,000 compounds went through this assay and about 17,000 (4.7%) were called active. The shares of active, inactive and inconclusive entries below differ from those in the screen. No stated cut-off is given here; in the data, active means activity change below about -50%; inconclusive means mostly about -30% to -49%; inactive means weaker than that.
# Test: qHTS for Inhibitors of Inflammasome Signaling: IL-1-beta AlphaLISA Primary Screen
# Conditions: THP-1 LPS/ATP IL-1B secretion, 16 h; at 57.5 µM, hits give low values
# How it was run: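 THP-1 cells pretreated 1 hr with compounds (up to 57.5 uM final), then stimulated with LPS (250 ng/mL final) plus ATP (1.25 mM final); secreted IL-1B measured by AlphaLISA after 16 hr, decreased signal indicating inhibition.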
# On the % scale 0 is the no-effect control and ±100 the full control effect.
row,SMILES,activity change
1,Cc1cc([N+](=O)[O-])nn1CC(=O)Nc1cc(F)ccc1F,inconclusive: -32.9%
2,O=C(Nc1ccccc1Cl)OC1CCCCC1,inactive: -9.48%
3,COc1cccc2[nH]c3c(N4CCCCC4)ncnc3c12,inconclusive: -32.8%
4,Cn1ccc(NC(=O)Nc2cccc([N+](=O)[O-])c2)n1,inconclusive: -31.6%
5,CN(C)c1ccc2nc3ccc(=[N+](C)C)cc-3sc2c1,inconclusive: -30.3%
6,Clc1ccc(Nc2nc(-c3cccs3)cs2)nc1,inconclusive: -40.9%
7,NCC(c1ccccc1Cl)c1c[nH]c2ccccc12 (stereo not drawn),inconclusive: -42.8%
8,COc1ccc2nc(NC(=O)C3CCN(S(=O)(=O)c4cccs4)CC3)sc2c1,active: -74.6%
9,Cc1cc(NC(=O)C2CCCCC2)ncc1NC(=O)c1ccccn1,active: -50.7%
10,CN(CC#CC(O)(c1ccccc1)c1ccccc1)C(C)(C)C,inactive: -6.5%
11,COc1ccc(NC(=O)c2cc(Br)c(Br)s2)cn1,active: -52.7%
12,O=C(CN1CCOCC1)Nc1nc(-c2ccc(Cl)cc2)cs1,inconclusive: -46.7%
13,O=C(NCCCn1ccnc1)c1cn(-c2ccccc2)nc1-c1ccc(F)cc1,inconclusive: -42.6%
14,O=C(Nc1ccccc1C(=O)NCCCN1CCOCC1)c1ccc(F)cc1,inconclusive: -38.2%
15,CN(CC(=O)Nc1cccc(F)c1)C(=O)c1ccc(C(=O)c2ccccc2)cc1,inconclusive: -35.3%
16,CCOCCCNC(=S)N1CCCN(c2nc3c(C)c(C)ccc3cc2C#N)CC1,inconclusive: -47.9%
17,O=C(CCc1nnc(Cc2ccc(-c3ccccc3)cc2)o1)NCCc1cccnc1,inactive: 0%
18,CC1Nc2ncnc(N3CCN(c4ccccc4)CC3)c2N(Cc2ccc(Cl)cc2)C1=O (stereo not drawn),inconclusive: -40.6%
19,c1ccc(-c2nc(N3CCOCC3)cc(N3CCOCC3)n2)cc1,inconclusive: -40.9%
20,O=c1c2ccccc2sn1-c1ccc(S(=O)(=O)N2CCCCC2)cc1,active: -91.4%

row,SMILES,activity change
1,Cc1ccc(Nc2ccc([N+](=O)[O-])cn2)cc1Cl,inconclusive: -37.9%
2,COc1ccc(F)cc1S(=O)(=O)N1CCC2(CC1)OCCN2S(=O)(=O)c1cccs1,inactive: 4.14%
3,c1ccc(Cc2ccc(OCCn3ccnc3)cc2)cc1,active: -57.5%
4,O=C(c1ccco1)N(CCC(c1ccccc1)c1ccco1)Cc1ccco1 (stereo not drawn),inconclusive: -35.3%
5,COc1ccccc1CN1CCN(C(CC(C)C)c2nnnn2Cc2cccs2)CC1 (stereo not drawn),inconclusive: -41.6%
6,O=C(NCCc1ccccc1)C1CC(c2ccccc2O)=NO1 (stereo not drawn),inactive: 3.96%
7,CC(=O)N1CCc2cc(Br)cc(S(=O)(=O)NCc3ccccn3)c21,inactive: -11%
8,O=C1NC2CCCCC2C(=O)N1OS(=O)(=O)c1ccccc1 (stereo not drawn),active: -78.3%
9,CC(C)c1ccc(C2(O)C(=O)Nc3cc(Br)ccc32)c(O)c1 (stereo not drawn),inconclusive: -42.3%
10,COc1ccc(-c2cc(C(=O)N(C)Cc3ccccc3)c3ccccc3n2)cc1,inconclusive: -33.9%
11,O=C(COC(=O)CNC(=O)c1cccs1)Nc1ccccc1C(F)(F)F,inconclusive: -30.5%
12,Cc1cc(C)c(-n2c(SCCS(=O)(=O)c3ccc(F)cc3)n[nH]c2=O)c(C)c1,active: -97.1%
13,CCCCN(CCCC)CC(O)COc1ccccc1C(=O)Nc1ccccc1 (stereo not drawn),active: -95.7%
14,COc1ccc(/C=N/NC(=O)c2ccc(=O)n(C)c2)cc1OC,inactive: 28.8%
15,N#CC1=C(N)Oc2n[nH]c(-c3ccncc3)c2C1c1ccsc1 (stereo not drawn),inconclusive: -36%
16,O=C(CN1CCCCC1)Nc1cccc(Oc2ccccc2)c1,inconclusive: -32.4%
17,CC1CN(c2ncnc3c2c(-c2ccccc2)cn3-c2ccc(F)cc2)CC(C)O1 (stereo not drawn),inconclusive: -43%
18,COc1cccc2sc3cc(NCC[C@@H]4CCCN4C)ccc3c(=O)c12,active: -71.4%
19,Cc1cc(NC(=O)c2cccc(S(=O)(=O)Nc3cccc(C(=O)O)c3)c2)no1,inactive: 21.2%
20,COc1ccc(CN2CCN(Cc3c[nH]c4ccccc34)CC2CCO)c(F)c1 (stereo not drawn),inconclusive: -44.3%

row,SMILES,activity change
1,CSc1ccc(CN2CCC(CO)(CCOc3ccccc3)CC2)cc1,inconclusive: -41.9%
2,CC1CCCN(S(=O)(=O)c2ccc(NC(=O)CNC3CCCC3)cc2)C1 (stereo not drawn),inconclusive: -41.5%
3,CSc1ccc(Cn2c(C)c(C(=O)NCc3ccc4c(c3)OCO4)sc2=O)cc1,inconclusive: -46.4%
4,CC1=C(C(=O)N(C(C)C)C(C)C)CC(CC(=O)NC2CCCC2)C(=O)N1CCC1=CCCCC1 (stereo not drawn),inconclusive: -38.6%
5,CCn1cc(CN2CCCC(C(=O)c3ccc(-c4ccccc4)c(F)c3)C2)cn1 (stereo not drawn),active: -81.3%
6,CSC1=N/C(=C\C=C\c2cccs2)C(=O)S1,active: -92.1%
7,C=CCNc1cc(F)ccc1S(=O)(=O)NCC=C,inactive: 9.13%
8,CCCN1CCN(C(=O)c2ccc(Sc3ccc(C)cc3)c(NC(C)=O)c2)CC1,inactive: 9.55%
9,O=C(CCl)c1ccc2[nH]c(=O)oc2c1,inconclusive: -37.1%
10,COc1ccc(CCNC(=O)CN(C)S(=O)(=O)c2cccs2)cc1,inactive: -9.59%
11,Cc1ccc(C(=O)NC2CCCCNC2=O)cc1 (stereo not drawn),inconclusive: -37.5%
12,O=C(N/N=C/C(Br)=C/c1ccccc1)c1cc(-c2ccco2)[nH]n1,active: -68.3%
13,CCN(CC)CCNC(=O)c1cc2cc(Br)ccc2s1,inconclusive: -32.8%
14,O=C(c1cnn2c(C(F)F)cc(-c3ccccc3)nc12)N1CCOCC1,inactive: 7.32%
15,O=c1c(C(c2ccc(Br)cc2)c2c(O)nc3n(c2=O)CCS3)c(O)nc2n1CCS2,active: -68.6%
16,COc1cc(F)ccc1-c1cc(C(=O)Nc2ccc(C)c(NS(C)(=O)=O)c2)[nH]n1,inactive: -4.25%
17,COc1ccccc1C#Cc1cnc2c(c1)C(=O)N([C@H](C)CO)C[C@@H](C)[C@@H](CN(C)C(=O)c1ccc3c(c1)OCO3)O2,inconclusive: -34.9%
18,Cc1sc2nc(CN3CCCC3)nc(N3CCN(C(=O)c4ccco4)CC3)c2c1C,inconclusive: -33.1%
